55 molecules from article PMC4336329 (PLoS ONE, 2015) can be followed below.

Among all 310,000 compounds or so, about 14,000 (4.5%) showed an effect of 50% or more. Effects have a minus sign here. This is one part of the list.
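Note: peak tail current of the secondary pulse compared with the same well before compound.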

This assay deals with human ether-à-go-go-related gene (hERG) potassium channel (human, UniProt Q12809). The assay can be described thus: primary screen, population patch clamp on CHO cells stably expressing hERG.
Sequence of human ether-à-go-go-related gene (hERG) potassium channel (Q12809 whole entry, looked up): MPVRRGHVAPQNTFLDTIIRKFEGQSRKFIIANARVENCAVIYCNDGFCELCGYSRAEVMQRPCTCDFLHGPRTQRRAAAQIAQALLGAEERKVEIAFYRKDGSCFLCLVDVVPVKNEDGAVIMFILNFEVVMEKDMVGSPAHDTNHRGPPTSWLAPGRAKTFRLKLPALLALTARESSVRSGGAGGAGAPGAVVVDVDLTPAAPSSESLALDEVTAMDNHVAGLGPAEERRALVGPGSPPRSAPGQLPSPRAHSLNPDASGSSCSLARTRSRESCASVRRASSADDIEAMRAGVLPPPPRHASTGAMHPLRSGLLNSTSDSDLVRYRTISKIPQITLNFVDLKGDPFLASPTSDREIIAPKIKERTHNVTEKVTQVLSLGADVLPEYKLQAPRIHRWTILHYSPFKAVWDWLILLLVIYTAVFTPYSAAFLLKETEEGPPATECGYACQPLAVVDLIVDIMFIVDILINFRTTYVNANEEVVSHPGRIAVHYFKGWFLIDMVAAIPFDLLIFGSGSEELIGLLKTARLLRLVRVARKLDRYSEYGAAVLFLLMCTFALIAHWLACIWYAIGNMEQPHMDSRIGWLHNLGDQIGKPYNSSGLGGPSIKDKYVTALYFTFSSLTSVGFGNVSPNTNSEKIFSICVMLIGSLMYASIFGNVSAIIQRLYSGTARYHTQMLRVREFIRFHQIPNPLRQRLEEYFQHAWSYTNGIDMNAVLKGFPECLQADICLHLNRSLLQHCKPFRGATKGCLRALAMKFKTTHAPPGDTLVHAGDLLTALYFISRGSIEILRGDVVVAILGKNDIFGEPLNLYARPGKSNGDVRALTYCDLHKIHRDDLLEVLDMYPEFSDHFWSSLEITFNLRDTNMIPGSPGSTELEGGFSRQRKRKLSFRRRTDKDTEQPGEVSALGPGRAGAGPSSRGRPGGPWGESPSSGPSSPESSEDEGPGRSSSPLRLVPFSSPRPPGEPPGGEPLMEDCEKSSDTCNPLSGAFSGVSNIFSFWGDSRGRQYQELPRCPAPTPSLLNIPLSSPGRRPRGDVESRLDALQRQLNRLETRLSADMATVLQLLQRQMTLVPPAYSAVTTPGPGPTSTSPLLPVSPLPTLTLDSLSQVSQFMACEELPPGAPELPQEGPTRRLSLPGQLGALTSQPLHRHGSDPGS
Regarding `COC(=O)c1ccccc1-c1ccc(C(c2c(C)[nH][nH]c2=O)c2c(C)[nH][nH]c2=O)o1`, the “hERG current change (%, negative = inhibition) at 10uM” value was found to be 23.7%.
`O=S(=O)(c1ccccc1S(=O)(=O)N1CCCCC1)N1CCCCC1`: the “hERG current change (%, negative = inhibition) at 10uM” value is recorded as -4.41%.
As for `O=C(Nc1ccccn1)NC12CC3CC(CC(C3)C1)C2`, the “hERG current change (%, negative = inhibition) at 10uM” value came out at 3.77%.
For `CC(NC(=O)C1CCN(C(=O)Nc2ccccc2)CC1)c1ccccc1Cl` (stereo not shown), the “hERG current change (%, negative = inhibition) at 10uM” value worked out at 8.06%.
The value for `COc1cccc(NC(=O)c2ccc(N3C(=O)C4CCC(C)CC4C3=O)cc2)c1` (stereo not shown) was -32.5%; that for `CC(=O)c1ccc(N2CCN(C(=O)CN(C)S(=O)(=O)c3cnc[nH]3)CC2)cc1` was -0.0452%.
Consider `Cc1nn(Cc2ccccc2)c(C)c1C(=O)NCc1ccccc1F`, for which the “hERG current change (%, negative = inhibition) at 10uM” value came out at 2.15%.
The same measure for `Cc1nnc(SCC(=O)NCc2ccc(Cl)cc2)[nH]c1=O`: -2.82%; for `O=C(c1ccc(Cl)cc1)C1CCCN(Cc2ccc(Oc3ncccn3)cc2)C1` (stereo not shown): -72.9%.
For `CC1Oc2ccccc2N(CC(=O)N2CCCC2)C1=O` (stereo not shown), the “hERG current change (%, negative = inhibition) at 10uM” value is reported as 14.1%.
Take `O=C(N=NC(=O)c1ccco1)c1ccc2c(O)n(N3C(=O)c4ccccc4C3=O)c(O)c2c1`: the “hERG current change (%, negative = inhibition) at 10uM” value was 14.9%.
The same measure for `CC1CC(C)CN(CCCNC(=O)CN2C(=O)c3cccnc3Oc3ccc(Cl)cc32)C1` (stereo not shown): -30.7%; for `CC(=O)CC(c1ccc([N+](=O)[O-])cc1)c1c(O)c2ccccc2oc1=O` (stereo not shown): 2.36%; for `CC(C)CC(NC(=O)/C(=C/c1ccco1)NC(=O)c1ccc(Br)o1)C(=O)O` (stereo not shown): 23.1%.
For `N#CC1=C(N)Oc2cc(O)ccc2C1c1ccccc1` (stereo not shown), the “hERG current change (%, negative = inhibition) at 10uM” value came to 15.5%.
As to `O=C(C1CC1)N1CCC(Oc2cccc(C(=O)N3CCCCC3CCO)c2)CC1` (stereo not shown), the “hERG current change (%, negative = inhibition) at 10uM” value is recorded as 16.6%.
For the molecule `CCCN1CCC(NC(=O)c2cccc(Oc3ccccc3)c2)CC1`, the “hERG current change (%, negative = inhibition) at 10uM” value is listed as -51.9%.
With `CNc1cc(N2CCCCCC2)ccc1[N+](=O)[O-]`, the “hERG current change (%, negative = inhibition) at 10uM” value is -27.8%.
The same measure for `CCOC(=O)C1CCN(C(=O)/C(C)=C\c2ccccc2)CC1`: 3.07%; for `O=C(CN1C(=O)/C(=C/c2ccco2)SC1=S)Nc1ccc(C(=O)O)c(O)c1`: 18.1%.
As for `CC1CC(C)CN(CCCNC(=O)c2ccc3nc(N4CCOCC4)sc3c2)C1` (stereo not shown), the “hERG current change (%, negative = inhibition) at 10uM” value is on record as -19.5%.
The value for `O=C(COC(=O)c1ccco1)Nc1nnc(-c2ccccc2)o1` was 21.4%.
The value for `O=c1[nH]c(C2CCN(S(=O)(=O)c3ccc(F)cc3)CC2)nc2c1nnn2Cc1ccc2c(c1)OCCO2` was 11.1%; that for `O=C1N[C@@H](Cc2cn(S(=O)(=O)c3ccc([N+](=O)[O-])cc3)c3ccccc23)C(=O)N[C@H]1Cc1ccccc1` was 10.5%; that for `Cc1c(Cl)ccc2sc(NC(=O)c3ccco3)nc12` was 18.9%.
The value for `CCOC(=O)c1ccc(Nc2nnc(C(C)(C)C)c(=O)[nH]2)cc1` was -21.7%; that for `COc1ccc(NC(=O)CSc2nnc(C)n2N)cc1S(=O)(=O)N1CCCCC1` was 2.55%; that for `Cc1ccc(Cl)cc1NC(=S)N(CCCN1CCN(C)CC1)Cc1cccs1` was -61.7%.
Turning to `COc1cccc(/C=N/NC(=O)Cn2nc(C)c([N+](=O)[O-])c2C)c1O`, the “hERG current change (%, negative = inhibition) at 10uM” value is listed as -13.1%.
`COc1ccc(CCNC(=O)CSc2nnc(CNC(=O)c3c(F)cccc3Cl)o2)cc1OC`: the “hERG current change (%, negative = inhibition) at 10uM” value is reported as -8.07%.
The value for `CC(=O)Nc1ccc(N)cc1` was 11.2%; that for `COc1cccc(C2c3c(oc4ccccc4c3=O)C(=O)N2CCCN(C)C)c1OC` (stereo not shown) was 22.8%.
The same measure for `O=C(Nc1c2c(nn1-c1ccc(F)cc1)CS(=O)C2)c1ccc2c(c1)OCO2` (stereo not shown): 16.4%; for `O=C(CSc1nnc(NCc2ccccc2)s1)N1CCOCC1`: 2.09%.
The value for `Cc1cc(=O)[nH]c(Sc2c(-c3ccccc3)c3ccccc3[nH]c2=O)n1` was -4.45%; that for `COc1cc2c(C(=O)O)c(C)n(C)c2c2ccccc12` was 31.4%; that for `CC(=O)c1cn(-c2ccc(Cl)cc2)c(=O)[nH]c1=O` was 8.47%.
Turning to `CC(=O)Oc1oc(-c2ccccc2)nc1/C=N/c1ccccn1`, the “hERG current change (%, negative = inhibition) at 10uM” value is -22.6%.
Turning to `COc1ccc(OCCn2cc(/C(N)=N/O)c3ccccc32)cc1`, the “hERG current change (%, negative = inhibition) at 10uM” value was -27.8%.
For `CCOc1ccccc1NC(=O)c1cnccn1`, the “hERG current change (%, negative = inhibition) at 10uM” value is listed as 4.02%.
For the molecule `COc1ccc(/C(O)=C2/C(=O)C(=O)N(CC3CCCO3)C2c2ccc(OC)c(OC)c2)cc1` (stereo not shown), the “hERG current change (%, negative = inhibition) at 10uM” value came to 1.45%.
The value for `CCCCN1CCc2c(c3ccccc3n2Cc2ccccc2)C1` was -72.9%; that for `Cc1ccc(NC2=NCCCS2)c(C)c1C` was -11.5%.
As for `CCCCCc1c(O)nc(SCCN2CCOCC2)[nH]c1=O.Cl`, the “hERG current change (%, negative = inhibition) at 10uM” value is -1.61%.
The same measure for `CCC(C(=O)NCC1CCCO1)N(Cc1ccc(F)cc1)C(=O)CNS(=O)(=O)c1ccccc1` (stereo not shown): -7.65%; for `N#Cc1c(-c2ccccc2)c(-c2ccccc2)nn(CC(=O)NNC(=O)Nc2ccc(Cl)cc2)c1=O`: 0.631%; for `Cc1cc2ncn(C(=O)c3ccc4c(c3)OCO4)c2cc1C`: 7.4%.
The same measure for `O=C(COc1ccc2c(-c3ccccc3)cc(=O)oc2c1)Nc1cccnc1`: -21.5%.
With `O=C(CC(c1ccccc1)c1ccccc1)NCCOCc1ccccc1`, the “hERG current change (%, negative = inhibition) at 10uM” value is recorded as -12.6%.
Regarding `COc1ccc(N(CC(=O)NC2CC3CCC2C3)S(=O)(=O)c2ccc(C)c([N+](=O)[O-])c2)cc1` (stereo not shown), the “hERG current change (%, negative = inhibition) at 10uM” value is 19.7%.
For the molecule `Cc1ccc(-c2noc(CCC(=O)N(C)c3ccccc3C)n2)cc1`, the “hERG current change (%, negative = inhibition) at 10uM” value is recorded as -0.529%.
The value for `COc1cccc(/C=N\NC(C)=O)c1OC/C=C/c1ccccc1` was 18.4%; that for `CCN(CC)C(=O)CSc1nnc(SCc2ccc(Cl)cc2)s1` was -3.44%; that for `O=[N+]([O-])c1ccccc1Nc1c2ccccc2nc2ccccc12` was -6.84%.
As to `COC1=C[C@@H]2C3=C([C@@H]2C1=O)[C@@H](NC(C)=O)CCc1cc(OC)c(OC)c(OC)c13`, the “hERG current change (%, negative = inhibition) at 10uM” value came to 15.9%.
